Source: publication PMC7819943, “Rice protein-binding microarrays: a tool to detect cis-acting elements near promoter regions in rice”
The other results are listed elsewhere or left out.

The sequences below were run against T1, OsWOX13 (Oryza sativa, UniProt Q5QMM3 1-267) (assay: protein-binding microarray (RPBM); PBS, 2% BSA, 51.3 ng/ul salmon testes DNA, 50 uM zinc acetate, 200 nM TF, 25 C, 1 h; high values mean tight binding). Conditions: protein: recombinant; tags: N-terminal polyhistidine and DsRed monomer fusion (pET32a); label: CyDye5-dUTP incorporated in the synthesized complementary strand; 3' TTTTT single-stranded linker to array surface; dsDNA, one strand shown.
T1 sequence: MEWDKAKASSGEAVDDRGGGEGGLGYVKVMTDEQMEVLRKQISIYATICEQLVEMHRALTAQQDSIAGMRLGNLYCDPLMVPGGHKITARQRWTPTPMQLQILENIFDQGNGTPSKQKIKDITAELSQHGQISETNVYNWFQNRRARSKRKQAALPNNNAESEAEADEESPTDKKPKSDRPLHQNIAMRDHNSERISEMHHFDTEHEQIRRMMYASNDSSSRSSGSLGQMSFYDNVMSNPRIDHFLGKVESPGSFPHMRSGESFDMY
Summary of the method: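 In PBS with 2% BSA, salmon testes DNA and 50 µM zinc acetate, 200 nM protein was incubated on a custom Agilent array at 25 °C for 1 h and then washed off. The array had been made double-stranded by primer extension with Cy5-dUTP and blocked with 2% BSA. The proteins were transcription factors fused N-terminally to polyhistidine and DsRed, expressed in E. coli BL21-CodonPlus and purified on Ni–NTA. The binding signal is per-feature fluorescence intensity (arbitrary units) from an Axon 4000B scanner.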

Sequence	binding signal
GTTGATTTGGTCATCATCCAACGCCGGCCAGGCTCGCCAGCGGAGTCACCTAGTGCAG	30900 fluorescence intensity (a.u.)
TATAAATTTATTTAACTTAAGGAAATATTAACAAGTACAACGGAGTCACCTAGTGCAG	9220 fluorescence intensity (a.u.)
CACGATGGTAATTAACCACCCCTTGGCGCTTTTCGGCCCCCGGAGTCACCTAGTGCAG	7630 fluorescence intensity (a.u.)
GCTTGGATTGGTCTGAACATCGGTGACAGTGGAGAAGACGCGGAGTCACCTAGTGCAG	3780 fluorescence intensity (a.u.)
AACAATTCAATCATTTATGAGATAAACGGTTGTTTTCTACCGGAGTCACCTAGTGCAG	19400 fluorescence intensity (a.u.)
AGTTGCAAATTGATCAAGGCATAATTTCAGGCTTACAGCTCGGAGTCACCTAGTGCAG	19000 fluorescence intensity (a.u.)
TTGTGTGTGCGTTTGTGATTGCGTCGGTCGGTTTCAGTTCCGGAGTCACCTAGTGCAG	3980 fluorescence intensity (a.u.)
TCCCTAAATAGGGGCAATTGCAAATTTACCACTACTTTGACGGAGTCACCTAGTGCAG	3170 fluorescence intensity (a.u.)
TTTGCGAAATTAATTATTCAGTGTTCTCCATAACACAATCCGGAGTCACCTAGTGCAG	10500 fluorescence intensity (a.u.)
AAATTGTTGATTGATAACGACCAAAACCTACGGAGGAGCGCGGAGTCACCTAGTGCAG	28000 fluorescence intensity (a.u.)
CCGAAATTTGTCTCTTAATCATATACCGCACTTTCTGCCACGGAGTCACCTAGTGCAG	16100 fluorescence intensity (a.u.)
GTACGATTGAATATTTATCGCAATTCATTTATCTAGTCATCGGAGTCACCTAGTGCAG	13400 fluorescence intensity (a.u.)
TATTAATTTAATAAAATTAATTTGGTAATGTAAATATTATCGGAGTCACCTAGTGCAG	15600 fluorescence intensity (a.u.)
CAGAATTGAAGAACTCAGGGAGCGTGTGGAGTGCAATATCCGGAGTCACCTAGTGCAG	3360 fluorescence intensity (a.u.)
AATAATAATTAGATAAGGGTGATGTACTCGAGTATCTTCCCGGAGTCACCTAGTGCAG	16100 fluorescence intensity (a.u.)
TATTAATTGGATAAAGTCATCTATATTAATGTGGATAATACGGAGTCACCTAGTGCAG	17600 fluorescence intensity (a.u.)
GCCCTAGATTGTGTAACAAGGTGGCAGACTGTTTAGCCGCCGGAGTCACCTAGTGCAG	3540 fluorescence intensity (a.u.)
CTTCAATGTTAATTGGAAGTAACTTTTGCATGGTTCAGAACGGAGTCACCTAGTGCAG	6760 fluorescence intensity (a.u.)
ATTTCCATCCATGATTGACGCCCTTCCTAAAACCAAGTTGCGGAGTCACCTAGTGCAG	32000 fluorescence intensity (a.u.)
CAAATATATTATAAAATTGCATTTAATAAAACTTATTTGGCGGAGTCACCTAGTGCAG	3450 fluorescence intensity (a.u.)
GAATAAAATAATTTGCCTTCAATCTATGCAATCATTGCTGCGGAGTCACCTAGTGCAG	15100 fluorescence intensity (a.u.)
TCTGGTTCGTCAATTGATGATGGATGGATGCTCTCCTTGTCGGAGTCACCTAGTGCAG	9860 fluorescence intensity (a.u.)
GTGCTGAATTAATCACGCGAGGATTAAATATAGGAATACGCGGAGTCACCTAGTGCAG	8600 fluorescence intensity (a.u.)
TAAGTCATATAAAATTAATTCAATTTTATGTTAATCCCTTCGGAGTCACCTAGTGCAG	6270 fluorescence intensity (a.u.)
AGAAAATTGGCATATGGGGCCATGGGTATTACTTACTTTTCGGAGTCACCTAGTGCAG	12500 fluorescence intensity (a.u.)
CTCTAATTTATCTATAGCCAACCTAATAGCTCATTAATACCGGAGTCACCTAGTGCAG	18900 fluorescence intensity (a.u.)
TATTAACTGTATTAGTTAAGCAGGGTTCACAAATTTGTTCCGGAGTCACCTAGTGCAG	3890 fluorescence intensity (a.u.)

Sequence	binding signal
TGATGACCGAGTCAAATTAGCCACGTAGACGCCACATCAGCGGAGTCACCTAGTGCAG	3370 fluorescence intensity (a.u.)
AAATGTTAAATTGTAATTAAATCAACACTTTGACTGTCAGCGGAGTCACCTAGTGCAG	19400 fluorescence intensity (a.u.)
GGAATAATTTCTGGGAACTCCTTTTCAGGAAATATTCGAGCGGAGTCACCTAGTGCAG	4350 fluorescence intensity (a.u.)
ATATAAGATCAATTATTAACAATATAGTATATATTTATAGCGGAGTCACCTAGTGCAG	4040 fluorescence intensity (a.u.)
AGATGATTGTGTTAGTGCAACTATTTTGTGGATCGCTAAGCGGAGTCACCTAGTGCAG	27200 fluorescence intensity (a.u.)
AGGGGTATTAATTAAACTGCTGTAGACGGCCGGTCACACTCGGAGTCACCTAGTGCAG	11200 fluorescence intensity (a.u.)
ATACTAATTAGAAGTATTAAAGGTGGACTATAGACAAAACCGGAGTCACCTAGTGCAG	17000 fluorescence intensity (a.u.)
ATGGATGACTGTGATATGATATCTTACACATCAATGATAGCGGAGTCACCTAGTGCAG	7720 fluorescence intensity (a.u.)
GTAGGTGACACTTCCAAATTGGACAGAACAGAGCTCAGTGCGGAGTCACCTAGTGCAG	3280 fluorescence intensity (a.u.)
ATCTGATGGAAAATGGCTAAGATTTAATGAATCAGAAACACGGAGTCACCTAGTGCAG	3850 fluorescence intensity (a.u.)
GACACTGGGTAAATTATTCAATTCTAACTAAATTATATGACGGAGTCACCTAGTGCAG	4590 fluorescence intensity (a.u.)
TCCGATTGATTACCTTCTATAAATACCTCACCCCACCCCTCGGAGTCACCTAGTGCAG	57600 fluorescence intensity (a.u.)
ATAATTAAAACTCAATTAATCACACGTTATTATCACATCGCGGAGTCACCTAGTGCAG	14200 fluorescence intensity (a.u.)
AATTAACTGTGCTTAATTAACCCTACTGTTTACATCCGTGCGGAGTCACCTAGTGCAG	35500 fluorescence intensity (a.u.)
TTCCTGGAACCAATCAGCAGCTAAAAGTCAATCCACGCCACGGAGTCACCTAGTGCAG	16100 fluorescence intensity (a.u.)
CTGCAATCACATTATTATCGCATGTAAATATATATATGGACGGAGTCACCTAGTGCAG	8740 fluorescence intensity (a.u.)
GCCAAGTTAATCAATCAAAATCATCCACCAACTGGTGCAGCGGAGTCACCTAGTGCAG	26300 fluorescence intensity (a.u.)
TCGTTGTAATAATTTGATTTCTTTTGCAGACGGTCTTTATCGGAGTCACCTAGTGCAG	5300 fluorescence intensity (a.u.)
TTCTCTGATTACCAAATATATGGGGCAAAATTTGTGTTAACGGAGTCACCTAGTGCAG	24700 fluorescence intensity (a.u.)
GAAAGAGAGATTGACAAGTGGGACCATGGGCAAACTTATCCGGAGTCACCTAGTGCAG	8990 fluorescence intensity (a.u.)
GAAATTCAAATTATACCAATTTAAATAGTTGGGATCAACACGGAGTCACCTAGTGCAG	5400 fluorescence intensity (a.u.)
TGGTAATTGGAAGAGAATTCCTCCATTACTTTCCTAAACACGGAGTCACCTAGTGCAG	31000 fluorescence intensity (a.u.)
CCAGATTTAATTTCACTTGCAATCTGTGATTCTTCTGGTGCGGAGTCACCTAGTGCAG	35300 fluorescence intensity (a.u.)
CAAAATTATTCGTAAACGAATAATTGGTTCATATTCGATCCGGAGTCACCTAGTGCAG	24400 fluorescence intensity (a.u.)
CATGATTCCATCAACATCTAGCTGTTGATGGCCCCTCTGTCGGAGTCACCTAGTGCAG	6100 fluorescence intensity (a.u.)
CCACCAGTTTAATTATTCTATTGTACCTGCTCTATTATATCGGAGTCACCTAGTGCAG	5550 fluorescence intensity (a.u.)
ACCATTACATCCAGTAATTTATATTATTATATACCTTGAACGGAGTCACCTAGTGCAG	6320 fluorescence intensity (a.u.)
